Results as given in ChEMBL document CHEMBL1201862, “PubChem BioAssay data set” (2004).
Values joined by “and” are separate entries in the source; they are usually repeats but may differ in a detail not shown here. Equal values may be shown once.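 1) Cells in 96-well plates. 2) Compound, 48 h, 5 concentrations. 3) Linear interpolation between surrounding doses. 4) Unreached endpoint = highest concentration. GI50: concentration for 50% inhibition of growth.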 Active and inactive are the calls of the source. Rule as the data show it: active = GI50 up to about 1.1 µM and inactive = higher.

Test system: NCI-H322M
Test: NCI tumour cell line growth inhibition, 48 h

SMILES	GI50
COc1ccc(NCC(=O)Nn2c(C)nc3ccc(S(=O)(=O)Nc4ccc(OC)cc4)cc3c2=O)cc1	inactive: > 100 µM
COC(=O)c1ccc(NCC2=CC(=O)C=CC2=O)cc1O	inactive: 20.5 µM
CCn1cc(C(=O)O)c(=O)c2cc(F)c(N3CCN(CN4C(=O)/C(=N\NC(=O)c5ccncc5)c5cc(Cl)ccc54)CC3)cc21	inactive: 49.9 µM
O=C(N/N=C1\CCc2ccccc21)N/N=C1\CCc2ccccc21	inactive: > 100 µM
COC(=O)C(=O)C(C(=O)C(=O)Nc1cc([N+](=O)[O-])ccc1[N+](=O)[O-])c1nc2ccc(C(=O)c3ccccc3)cc2nc1O (stereo not drawn)	inactive: 88.1 µM
NC(=O)C(=O)N/N=C(\CC1(O)C(=O)Nc2ccccc21)c1ccc2ccccc2c1 (stereo not drawn)	inactive: > 10 µM
Cn1c(=O)c2[nH]c(N/N=C3/SCC(=O)N3Cc3ccccc3)nc2n(C)c1=O	inactive: 91.8 µM
O=S(=O)(O)c1ccc2cc(/N=N/c3c(O)ccc4ccccc34)ccc2c1	inactive: > 100 µM
C=CC(C)(O)/C=C/C=C(\C)C(CC1OC1(C)C)OC(=O)/C(C)=C\C (stereo not drawn)	inactive: > 100 µM
COc1cc2c(c(OC)c1OC)-c1ccc(SC)c(=O)cc1[C@@H](NCc1ccc(F)cc1)CC2	active: < 0.0075 µM
CN(C)c1ccc(/C=C2\N=C(c3ccc([N+](=O)[O-])cc3)OC2=O)cc1	inactive: > 100 µM
CCN(CC)c1ccc2nc3ccc(/N=N/c4c(O)ccc5ccccc45)cc3[n+](-c3ccccc3)c2c1	inactive: > 100 µM
CN(C)CCNC(=O)c1c2ccccc2cc2ccccc12	inactive: 55.8 µM
Cc1ccc(S(=O)(=O)N/N=C2\CCCCCCCCCCC2CN(C)C)cc1 (stereo not drawn)	inactive: 22.4 µM
Cc1ccc(NC=O)c(-c2c(N)[nH]c(=S)[nH]c2=O)c1	inactive: > 100 µM
Cc1ccc(C)c(NC(=O)CC2Sc3ccccc3NC2=O)c1 (stereo not drawn)	inactive: 33.1 µM and inactive: 23.7 µM
CCOC(=O)C1(Cc2ccccc2)Cc2ccccc2C1=O (stereo not drawn)	inactive: 39.3 µM
COc1cccc2ccc3c(c12)C(=O)OC31CCc2c(C)cccc21 (stereo not drawn)	inactive: 14.5 µM
Cc1nc2ccc(S(=O)(=O)Nc3ccccc3Cl)cc2c(=O)n1NC(=O)CNc1ccccc1Cl	inactive: > 100 µM
COc1cccc2c1cc([N+](=O)[O-])c1c(C(=O)O)cc3c(c12)OCO3 [ARISTOLOCHIC ACID]	inactive: 55.3 µM
CC1(C)N=C(N)N=C(N)N1c1ccc(CCc2ccccc2)cc1	inactive: 1.96 µM

SMILES	GI50
O=C(CCCN1CCC(Nc2ccccc2)(c2nnnn2C2CCCCC2)CC1)c1ccc(F)cc1	inactive: 1.93 µM
c1cc2c(ncc3cscc32)s1	inactive: > 100 µM
Cc1[nH]c2ccccc2c1/C=N/NC(=O)c1cccc(I)c1	inactive: 24.7 µM
Cc1c(NC(=O)CCCl)c(=O)oc2c(C)c3occc(=O)c3cc12	inactive: 97.3 µM
CC1OC(n2ccc(=O)[nH]c2=O)C=C(OC(=O)c2ccccc2)C1=O (stereo not drawn)	inactive: > 100 µM
CC[P+](C)(Cc1ccccc1)c1ccccc1.O=C(OC(C(=O)[O-])C(OC(=O)c1ccccc1)C(=O)O)c1ccccc1 (stereo not drawn)	inactive: > 100 µM
CN(C)CCNc1nc2ccccc2c2c1CCCC2	inactive: 26.7 µM
Nc1nc(O)c2nc(CNc3ccc(C(=O)NC(CCC(=O)O)C(=O)O)cc3)cnc2n1 (stereo not drawn)	inactive: > 100 µM
CN(C)C[C@H]1CC[C@@H](CN(C)C)C1=O	inactive: > 50 µM
O=C(Cc1nc2ccc([N+](=O)[O-])cc2nc1O)C(=O)Nc1ccccc1[N+](=O)[O-]	inactive: > 100 µM
Cc1ccccc1NC(=O)c1nc(S)nc(N)c1-c1ccccc1C	inactive: > 100 µM
COc1ccc2c3c([nH]c2c1[N+](=O)[O-])C(C)N(Cc1ccccc1)CC3 (stereo not drawn)	inactive: > 100 µM
O=S(=O)(O)c1cc(S(=O)(=O)O)c2cc(/N=N/c3ccc(/N=N/c4ccc(/C=C/c5ccc(/N=[N+](/[O-])c6ccc(/C=C/c7ccc(/N=N/c8ccc(/N=N/c9ccc%10cc(S(=O)(=O)O)cc(S(=O)(=O)O)c%10c9)cc8)cc7S(=O)(=O)O)c(S(=O)(=O)O)c6)cc5S(=O)(=O)O)c(S(=O)(=O)O)c4)cc3)ccc2c1	inactive: 21.3 µM
Cc1ccc2nc(-c3ccccc3)c(N=O)n2c1	inactive: 57.1 µM
CC1=C(/C=C/C(C)=C/C=C/C(C)=C/CO)C(C)(C)CCC1 [RETINOL]	inactive: 27.1 µM
CCC1=C(CC2NCCc3ccccc32)CC2c3cc(OC)c(OC)cc3CCN2C1 (stereo not drawn)	active: 0.392 µM
COc1cc2c3c(c4cc(OC)c(OC)cc4c2cc1OC)[C@H](O)[C@@H]1CCCN1C3	active: < 0.0301 µM
CC1CNC(c2cccc(OCc3ccc(COc4cccc(C5=NC(C)CN5)c4)cc3)c2)=N1 (stereo not drawn)	inactive: 73.3 µM
Cc1cc(C)nc(/C(=N\NC(N)=O)C(=O)Nc2nc3ccc(C)cc3s2)c1	inactive: > 100 µM
Cc1cc(-c2nc3ccc(F)cc3s2)ccc1NC(=O)C(N)CCCCN (stereo not drawn)	inactive: 6.58 µM
COC/C=C\[C@]1(O)CCCC[C@@H]1CC(OC)OC	inactive: > 100 µM

SMILES	GI50
N#Cc1c(Cl)c2ccccc2n2c1nc1ccccc12	inactive: > 100 µM
COc1cc(OC)c(OC)cc1/C=C/c1nc2ccccc2s1	inactive: 72.6 µM
COc1ccc(/C=C/C(=O)CCN2CCN(CCC(=O)/C=C/c3ccc(OC)cc3)CC2)cc1	inactive: 26 µM
O=S1(=O)OCCOS(=O)(=O)C1Cc1ccccc1	inactive: 68.5 µM
CCOC(=O)NC(C(F)(F)F)(C(F)(F)F)P(=O)(OCC)OCC	inactive: > 100 µM
O=C1C=C(NCCc2cc(Br)c(O)c(Br)c2)C(=O)c2[nH]cnc21	inactive: 26.4 µM
O=S(=O)(NNc1ccccc1)c1ccccc1	inactive: 29.4 µM
Cc1cc2c(cc1C(=O)c1ccc(N)cc1)OCO2	inactive: 84.9 µM
CCOC(=O)/C(O)=C(/c1n[nH]c(=O)c2ccccc12)[N+](=O)[O-]	inactive: > 100 µM
C(=N\OCCc1ccccc1)/c1cccnc1	inactive: > 100 µM
CC(=N/NC(=S)N1CCCCCC1)/C(C)=N\NC(=S)N1CCCCCC1	inactive: 4.42 µM
Cc1cnc2cc(Cl)ccc2c1NCCN(CC(C)C)CC(C)C	inactive: > 100 µM
c1ccc2c(OCC3CO3)ccc(OCC3CO3)c2c1 (stereo not drawn)	inactive: 10.6 µM
COc1cc(C2C3=C(COC3=O)Oc3cc4c(cc32)OCO4)cc(OC)c1OC (stereo not drawn)	active: 0.0351 µM
O=C(O)CNc1ccc(Cl)c(Cl)c1	inactive: 22.6 µM
N#CC(/C(CCCC(=O)Nc1cccc([N+](=O)[O-])c1)=N\NC(=O)c1c(O)ccc2ccccc12)c1nc2ccccc2s1 (stereo not drawn)	inactive: 18.1 µM
Cc1cc(/N=N/c2c(O)ccc3ccccc23)ccc1/N=N/c1cccc([N+](C)(C)C)c1	inactive: 22.3 µM
O=C(CC1SC(Nc2ccccc2Cl)=NC1=O)Nc1ccc(Cl)cc1Cl (stereo not drawn)	inactive: > 100 µM
CC(=O)OCC1OC(n2c(C)c(/N=N/c3ccc(C)cc3)c(C)c(C#N)c2=S)C(OC(C)=O)C(OC(C)=O)C1OC(C)=O (stereo not drawn)	inactive: > 100 µM
O[C@@H]1[C@H](OC2c3ccccc3-c3ccccc32)[C@H](OCc2ccccc2)[C@@H]2OC[C@H]1O2	inactive: > 100 µM
CCOC(=O)c1cc(Br)c(-c2onc(C)c2Br)[nH]1	inactive: 49.7 µM
